In PubChem BioAssay (NCI):
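Test compounds were applied to cells in 96-well plates for 48 hours at 5 doses. Abbreviation: GI50, concentration required for 50% inhibition of growth. TGI is the concentration that stops growth completely.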

Tested on: NCI-H322M lung
Assay: DTP human tumour cell line panel, 48 h

Point of comparison: `O=[N+]([O-])c1cc([N+](=O)[O-])c(NN=C(c2ccc(O)cc2)c2ccc(O)cc2)cc1Cl`, GI50 1.94 µM. Against it:
- CO[C@H]1/C=C/[C@@](C)(O)/C=C/C(=O)O[C@H](C)[C@@H](C)CC/C=C/1C — 9.1-fold higher, 17.6 µM
- Cc1cc2c(cc1O)[nH]c1cc3c(cc12)C=CC(C)(C)O3 — 6.8-fold higher, 13.1 µM
- COC1=C(C)C(=O)N2[C@@H]1[C@H](c1ccccc1)OC21C=CC(=O)C=C1 — 8.6-fold higher, 16.6 µM
- C1C[OH+]CCNCC[OH+]CC[OH+]CCN1.O.[Cl-].[Pt+4] — higher, > 10 µM
- CCN(Cc1cc(F)cc(F)c1)c1ccc(CO)c(Cl)c1 — 4.5-fold higher, 8.69 µM
- COc1cc(C=C2c3ccccc3C(=O)c3ccccc32)ccc1OCCCCOc1cc2c(cc1OC)C(=O)N1CCCC1C=N2 (stereo unspecified) — 2.1-fold lower, 0.945 µM
- O=C(c1ccc(Oc2ccccc2)cc1Cl)c1c[nH]c2ncnc(N[C@@H]3CC[C@@H](CO)OC3)c12 — 2.6-fold lower, 0.75 µM
- COc1ccc(/C=C/C(=O)c2c(O)c(C)c(O)c3c2OC2=CC(O)=C(C(C)=O)C(=O)[C@]23C)cc1 — 2-fold lower, 0.954 µM
- Nc1nc(SCc2ccccc2)nc2[nH]ncc12 — 7.9-fold higher, 15.4 µM

Point of comparison: `COc1cc(C=C2c3ccccc3C(=O)c3ccccc32)ccc1OCCCCOc1cc2c(cc1OC)C(=O)N1CCCC1C=N2` (stereo unspecified), TGI 2.31 µM. Against it:
- O=[N+]([O-])c1cc([N+](=O)[O-])c(NN=C(c2ccc(O)cc2)c2ccc(O)cc2)cc1Cl — 2-fold higher, 4.56 µM
- O=C(C(=O)c1cc(-c2ccccc2)nc2ccc3ccccc3c12)c1ccccc1 — higher, > 100 µM
- O=C(O)[C@@H](NS(=O)(=O)c1ccc(F)cc1)c1ccccc1 — higher, > 100 µM
- Cc1cccc(C)c1NC(=O)CCC(=O)NNc1nnc(C)n1N — higher, > 100 µM
- Cc1cn(CC2=NCC(O)CN2)c(=O)[nH]c1=O (stereo unspecified) — higher, > 100 µM
- Cc1cc(=O)[nH]c(-n2[nH]c3c(c2=O)CCCC3)n1 — higher, > 100 µM
- CN1N(c2ccccc2)C(=O)C2=NC=C(C(=O)c3ccccc3)C(=N)C21C (stereo unspecified) — higher, > 100 µM
- CO[C@H]1/C=C/[C@@](C)(O)/C=C/C(=O)O[C@H](C)[C@@H](C)CC/C=C/1C — 34-fold higher, 78.7 µM
- CC[C@H]1CC(=O)c2c(cc3c(c2O)C(=O)c2ccccc2C3=O)[C@@]1(C#N)C(=O)OC(C)(C)C — 8.9-fold higher, 20.6 µM
- COC(=O)N/N=C(/CC1(O)C(=O)Nc2ccc([N+](=O)[O-])cc21)c1ccccc1 (stereo unspecified) — higher, > 100 µM
- Cc1ccc(-c2cc(=O)c3cc4c(cc3[nH]2)OCO4)cc1 — higher, > 100 µM
- C#CCn1c(=O)[nH]c(=O)c2cccnc21 — higher, > 100 µM
- COC(=O)[C@@H]1CCc2nc3ccccc3c(=O)n21 — higher, > 100 µM
- C1CSC2=C(S1)SC1=C(S2)SC(=C2SC3=C(SC4=C(SCCS4)S3)S2)S1 — higher, > 100 µM
- COc1cc2c(cc1OCCCCCN1C(=O)c3cccc4cccc(c34)C1=O)N=C[C@@H]1CCCN1C2=O — 3.5-fold higher, 8.04 µM
- [O-][n+]1c(-c2ccccc2)oc2ccccc21 — 13-fold higher, 29.7 µM
- O=c1c(Nc2ccccc2)cn(CCOc2ccccc2)c(=O)n1CCOc1ccccc1 — higher, > 100 µM
- CC(=O)O[C@]1(C)CCC2C(C)C(=O)OC2C2C(C)[C@@H](O)CC21 (stereo partly specified) — higher, > 100 µM
- C[Si](C)(C)CNC(=O)OCc1ccccc1 — higher, > 100 µM
- N#CNC1=NC(Cc2ccccc2)C(=O)N1CCc1c[nH]c2ccccc12 (stereo unspecified) — higher, > 100 µM
- CCOC(=O)NC(NCC(O)c1ccccc1)(C(F)(F)F)C(F)(F)F (stereo unspecified) — higher, > 100 µM
- CN(C)c1ccc(C2C(Cl)C(=O)N2NC(=O)c2c(Cl)c(Cl)c(Cl)c(Cl)c2-c2nc3ccccc3[nH]2)cc1 (stereo unspecified) — higher, > 100 µM
- Cc1cc2c(cc1O)[nH]c1cc3c(cc12)C=CC(C)(C)O3 — higher, > 25 µM
- C=CCOC1=C(OC(C)=O)C(=O)OC1C1COC(C)(C)O1 (stereo unspecified) — higher, > 100 µM
- Clc1ccc(N=C2c3ccccc3CN2c2ccc(Cl)cc2)cc1 — higher, > 100 µM
- O=[N+]([O-])c1ccc(NC(=S)N=Nc2c(O)[nH]c3ccccc23)cc1 — 17-fold higher, 38.9 µM
- COC(=O)/C(C#N)=C1\CCC(OC)N1 (stereo unspecified) — higher, > 100 µM
- COC1=C(C)C(=O)N2[C@@H]1[C@H](c1ccccc1)OC21C=CC(=O)C=C1 — higher, > 43.8 µM
- NC(C/C=C/P(=O)(O)O)C(=O)O (stereo unspecified) — higher, > 100 µM
- Cc1ccc(N=Nc2c(C)nn(-c3ccccc3)c2C)c(Br)c1 — higher, > 100 µM
- CC1COC(c2cn[nH]c2C(N)=O)C1O (stereo unspecified) — higher, > 100 µM
- COc1cc2c(c(OC)c1OC)CCNC2C1=C(O)COC1=O (stereo unspecified) — higher, > 100 µM
- C1C[OH+]CCNCC[OH+]CC[OH+]CCN1.O.[Cl-].[Pt+4] — higher, > 10 µM
- CCN(Cc1cc(F)cc(F)c1)c1ccc(CO)c(Cl)c1 — 10-fold higher, 23.2 µM
- CCOc1ccccc1/C=C(/C#N)C(N)=O — higher, > 100 µM
- O=C(c1ccc(Oc2ccccc2)cc1Cl)c1c[nH]c2ncnc(N[C@@H]3CC[C@@H](CO)OC3)c12 — 2.3-fold higher, 5.28 µM
- COc1ccc(/C=C/C(=O)c2c(O)c(C)c(O)c3c2OC2=CC(O)=C(C(C)=O)C(=O)[C@]23C)cc1 — 2.3-fold higher, 5.37 µM
- COc1ccc(Cc2c(N)[nH]c(=O)[nH]c2=O)cc1 — higher, > 100 µM
- COc1ccccc1N=NC(C(=O)c1ccccc1)C(=O)c1ccccc1 — 16-fold higher, 36.3 µM
- O=C(O)Cc1cc(F)ccc1C(=O)O — higher, > 100 µM
- O=C1c2ccc3c4ccc5c6c(ccc(c7ccc(c2c37)C(=O)N1CCN1CCCCC1)c64)C(=O)N(CCN1CCCCC1)C5=O — higher, > 100 µM
- Nc1nc(SCc2ccccc2)nc2[nH]ncc12 — 13-fold higher, 29 µM
- C#CCCOC(=O)CC1=C(C)/C(=C/c2ccc(S(C)=O)cc2)c2ccc(F)cc21 (stereo unspecified) — 16-fold higher, 37.5 µM
- CN(C)c1nc2nonc2nc1Nc1ccccc1 — higher, > 100 µM
- O=C(Nc1ccn(C2CCC(CO)O2)c(=O)n1)c1ccccc1 (stereo unspecified) — higher, > 100 µM
- CCn1cc(C(=O)O)c(=O)c2ccc(C)nc21 — higher, > 100 µM
- CS(=O)(=O)OCOS(C)(=O)=O — higher, > 100 µM
- COC(=O)[C@]1(C)CC[C@]2(C)CC[C@]3(C)C4[C@H]5Oc6c(cc7c(c6C)CCC6[C@@]7(C)CC[C@@]7(C)C8[C@](C)(CCC[C@@]8(C)C(=O)OC)CC[C@]67C)O[C@H]5c5c(cc6c(c5C)O[C@@]5(C)C7=CC=C8[C@@](C)(CC[C@@]9(C)[C@@H]%10C[C@](C)(C(=O)OC)CC[C@]%10(C)CC[C@]89C)C7=CC(=O)[C@@]5(O)O6)[C@]4(C)CC[C@@]3(C)C2C1 (stereo partly specified) — higher, > 12.5 µM
- CC[C@@]1(O)C(=O)OCc2c1cc1n(c2=O)Cc2c-1nc1ccccc1c2/C=N/NC(=O)C[N+](C)(C)C — higher, > 100 µM
- CNc1ccccc1S(=O)(=O)c1ccccc1[N+](=O)[O-] — higher, > 100 µM
